Structures are written as SMILES. In all, about 310,000 compounds went through this assay and about 2,200 (0.71%) showed an effect of 50% or more. Effects have a minus sign here. The list shows a part of the results.

Sequence of human ether-à-go-go-related gene (hERG) potassium channel (Q12809 whole entry, looked up): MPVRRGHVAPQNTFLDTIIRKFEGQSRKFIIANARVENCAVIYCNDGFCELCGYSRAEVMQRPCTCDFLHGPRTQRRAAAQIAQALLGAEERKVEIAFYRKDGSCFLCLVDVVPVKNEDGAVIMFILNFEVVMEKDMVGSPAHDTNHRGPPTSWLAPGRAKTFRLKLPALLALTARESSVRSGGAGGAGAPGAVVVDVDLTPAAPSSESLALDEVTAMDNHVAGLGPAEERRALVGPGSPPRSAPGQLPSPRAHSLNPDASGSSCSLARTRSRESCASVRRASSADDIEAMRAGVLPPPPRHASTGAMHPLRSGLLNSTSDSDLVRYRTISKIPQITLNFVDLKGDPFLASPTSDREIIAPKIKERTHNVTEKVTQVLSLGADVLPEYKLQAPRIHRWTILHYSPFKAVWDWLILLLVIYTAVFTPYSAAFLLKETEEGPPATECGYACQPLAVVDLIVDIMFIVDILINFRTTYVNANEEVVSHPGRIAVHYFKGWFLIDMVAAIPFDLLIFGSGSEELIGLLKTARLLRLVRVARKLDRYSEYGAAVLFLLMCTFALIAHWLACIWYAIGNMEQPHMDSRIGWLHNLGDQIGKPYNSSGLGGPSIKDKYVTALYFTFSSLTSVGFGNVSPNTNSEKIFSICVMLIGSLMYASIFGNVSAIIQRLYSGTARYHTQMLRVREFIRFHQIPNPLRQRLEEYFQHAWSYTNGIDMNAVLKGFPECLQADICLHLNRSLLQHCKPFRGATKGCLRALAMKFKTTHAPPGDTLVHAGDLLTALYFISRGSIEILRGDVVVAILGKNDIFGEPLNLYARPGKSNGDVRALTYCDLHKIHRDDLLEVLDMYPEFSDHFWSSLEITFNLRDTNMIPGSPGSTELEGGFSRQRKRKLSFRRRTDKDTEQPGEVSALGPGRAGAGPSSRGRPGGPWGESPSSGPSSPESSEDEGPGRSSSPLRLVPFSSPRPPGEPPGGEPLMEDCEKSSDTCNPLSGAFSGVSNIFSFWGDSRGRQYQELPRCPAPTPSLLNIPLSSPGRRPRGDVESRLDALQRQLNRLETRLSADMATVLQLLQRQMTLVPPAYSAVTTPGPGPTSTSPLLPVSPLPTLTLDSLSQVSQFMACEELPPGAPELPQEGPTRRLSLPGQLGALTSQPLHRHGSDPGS

The experiment addresses human ether-à-go-go-related gene (hERG) potassium channel (human, UniProt Q12809). In words: primary screen, population patch clamp on CHO cells stably expressing hERG.
As to `C=CCOC(=O)C1=C[C@@H](c2csc3ccccc23)[C@H](CCCO)[C@@H](OCC)O1`, the “hERG current change (%, negative = inhibition) at 1uM” value stood at 13.3%.
Next, `C=C(C)C1CC=C(CN2CCN(Cc3ccccc3)CC2)CC1` (centres unmarked): 12.3%.
Consider `O=C1N=C(N2CCN(c3ccccc3)CC2)S/C1=C\c1ccco1`, for which the “hERG current change (%, negative = inhibition) at 1uM” value was -17.8%.
On to `CCn1c(SCC(=O)Nc2cc(C)on2)nc2c(c1=O)SC(C)C2` (centres unmarked), for which the “hERG current change (%, negative = inhibition) at 1uM” value is on record as 7.36%.
In the case of `CN(CCNC(=O)c1ccc(/C=N/O)nc1)Cc1ccccc1`, the “hERG current change (%, negative = inhibition) at 1uM” value was -2.07%.
Next, `COC(=O)C1=C(c2ccc(OC)c(OC)c2)C[C@@H]2CC[C@H]1N2C(=O)N1CCOCC1`: 10.1%; `CCOC(=O)CC(NC(=O)C(Cc1ccc(N(CCCl)CCCl)cc1)NC(C)=O)C(=O)OCC` (centres unmarked): 11.3%; `CCOc1ccccc1OCC(=O)Nc1ccc(OC)c(S(=O)(=O)N2CCCCC2)c1`: -0.239%.
For the molecule `CC(C)CCNC(=O)COC(=O)c1ccc(Br)o1`, the “hERG current change (%, negative = inhibition) at 1uM” value stood at 7.35%.
As to `CC1CC(=O)Nc2ccc([N+](=O)[O-])cc2N1C` (centres unmarked), the “hERG current change (%, negative = inhibition) at 1uM” value amounted to 15.2%.
For the molecule `c1cnc2c(c1)ncc1cscc12`, the “hERG current change (%, negative = inhibition) at 1uM” value came out at 3.58%.
`CCCCN1C(=O)CC(Sc2ncccc2C(=O)O)C1=O` (centres unmarked): the “hERG current change (%, negative = inhibition) at 1uM” value is reported as 12.6%.
On to `O=C(Nc1ccc(-c2noc(CCc3ccccc3)n2)cc1)c1ccco1`, for which the “hERG current change (%, negative = inhibition) at 1uM” value is reported as 17.2%.
In the case of `Cc1cc(C(=O)OCC(=O)NC(=O)NC(C)(C)C)c(C)o1`, the “hERG current change (%, negative = inhibition) at 1uM” value is -1.99%.
Under `Cc1ccc(C(=O)n2nc(-c3ccco3)nc2N)cc1` stands 4.19%.
With `Cc1ccc(C(=O)Oc2cc(N)n(S(=O)(=O)c3ccc(C)cc3)n2)cc1`, the “hERG current change (%, negative = inhibition) at 1uM” value worked out at 8.52%.
For `CCN(CC)S(=O)(=O)c1ccc(C(=O)OCC(=O)NCCN2C(=O)CSC2=O)cc1`, the “hERG current change (%, negative = inhibition) at 1uM” value is given as -2.99%.
Next, `c1cncc(C(c2nnnn2C2CCCC2)N2CCN(Cc3ccc4c(c3)OCO4)CC2)c1` (centres unmarked): 5.56%; `COc1cc(/C=C2\C(=O)NN(c3ccccc3)C2=O)ccc1OCC(N)=O`: 5.45%.
With `COc1ccc(C(=O)NC(=S)Nc2nc(-c3ccc(OC)c(Br)c3)cs2)cc1Br`, the “hERG current change (%, negative = inhibition) at 1uM” value was 18%.
As for `Cc1ccc(NC(=S)NNC(=O)CCn2cc(C)cn2)cc1`, the “hERG current change (%, negative = inhibition) at 1uM” value is on record as 3.97%.
As for `O=C(O)CCCC(=O)Nc1cccc(C(=O)Nc2ccccc2C(=O)O)c1`, the “hERG current change (%, negative = inhibition) at 1uM” value turned out to be 14.6%.
Next, `O=C(CCCNS(=O)(=O)c1ccc(Cl)c(Cl)c1)NCCc1ccccn1`: -5.53%.
Under `Cc1ccc(C(=O)NCCCNC(=O)c2ccco2)cc1C` stands 13.3%; under `O=C(/C=C/c1cccs1)NC(=S)Nc1ccccc1`, 6.65%.
For `COc1ccc2[nH]c3c(=O)n(CCCCC(=O)N4CCCC4)c(=S)[nH]c3c2c1`, the “hERG current change (%, negative = inhibition) at 1uM” value is given as 0.224%.
For the molecule `C[C@H](NC(=O)c1nc[nH]c1C(=O)N1CCN(c2ccccc2)CC1)c1ccccc1`, the “hERG current change (%, negative = inhibition) at 1uM” value is 8.47%.
As for `CC(=O)C12CCCCC1CC1C3CC(C)C4(O)CC(=O)CCC4(C)C3CCC12C` (centres unmarked), the “hERG current change (%, negative = inhibition) at 1uM” value was 17%.
Under `O=C1C=C(c2ccc(Cl)nc2)C[C@@H](c2ccc3c(c2)OCO3)C1` stands -1.67%; under `COCCCNc1nc2c([nH]1)c(=O)[nH]c(=O)n2C`, 6.34%.
Next, `CN(C)c1ccc(C(=O)N=c2sccn2C)cc1[N+](=O)[O-]`: 8.01%; `CCOc1ccc(Nc2nc(Cc3nnc(SCC(=O)c4ccc(C)c(C)c4)o3)cs2)cc1`: 6.96%; `COc1ccc(CCNC(=O)CN2c3cccc4cccc(c34)S2(=O)=O)cc1OC`: 12.9%.
Next, `COc1ccc(COC(=O)C2=C(C)NC(=O)NC2c2ccc(O)c(OC)c2)cc1` (centres unmarked): 4.81%; `O=C(CSc1nc2ccccc2[nH]1)NC1CCCc2ccccc21` (centres unmarked): 8.95%; `O=C(CCSc1ccccc1)Nc1ccc(OCc2ccccc2)cc1`: 9.12%.
Consider `C#CCOCCOCCOCCNc1nc(N2CCN(C(=O)C([C@@H](C)CC)n3cc(C(N)Cc4ccc(O)cc4)nn3)CC2)nc(N2CCN(C(=O)[C@H](CCC(=O)O)n3cc(C(N)CC(C)C)nn3)CC2)n1.Cl` (some centres unmarked), for which the “hERG current change (%, negative = inhibition) at 1uM” value is reported as 10.1%.
Under `COc1cccc(CN(C)CC(=O)NC(=O)NCc2ccccc2)c1` stands 4.04%; under `CCN(CC)c1ccc(N=Nc2nn(C)c(C)c2[N+](=O)[O-])cc1`, 5.4%.
As for `NC(=O)[C@@H]1[C@@H]2C(=O)N(c3ccc(F)cc3)C(=O)[C@@H]2[C@H]2C=Cc3ccccc3N21`, the “hERG current change (%, negative = inhibition) at 1uM” value came to 10.1%.
Under `COc1ccccc1-c1noc(-c2cccs2)n1` stands 0.581%; under `CCN1CCC(NC(=O)c2cc(OC)c(OC)cc2OC)CC1`, 3.22%.
Next, `Cc1cc(C)cc(NC(=O)COc2coc(CN3CCc4ccccc43)cc2=O)c1`: 10.2%; `COC(=O)c1ccccc1N1C(=O)C2C(C1=O)[C@H]1C=C[C@@H]2C1` (some centres unmarked): -3.85%; `O=C(CSc1nnc(Cc2ccccc2)o1)N1CCc2ccccc21`: 4.83%.
In the case of `COCCNC(=O)CCC1CCN(Cc2ccc(-c3ccccc3)cc2)CC1`, the “hERG current change (%, negative = inhibition) at 1uM” value is listed as -15.5%.
As to `Cc1ccc(N2CC(C(=O)OCC(=O)Nc3cc(C)on3)CC2=O)c(C)c1` (centres unmarked), the “hERG current change (%, negative = inhibition) at 1uM” value is listed as 17.3%.
In the case of `COc1ccc(CCC(=O)Nc2ccc(OC)c(S(=O)(=O)N3CCCCC3)c2)cc1OC`, the “hERG current change (%, negative = inhibition) at 1uM” value is on record as -1.26%.
`c1ccc2[nH]c(-c3ccnc4ccccc34)nc2c1`: the “hERG current change (%, negative = inhibition) at 1uM” value is reported as 6.78%.
Turning to `Clc1ccc(N2N=C(c3cccs3)CC2c2ccco2)cc1` (centres unmarked), the “hERG current change (%, negative = inhibition) at 1uM” value worked out at 0.328%.
For the molecule `CC(C)c1nnc(NC(=O)CCC(=O)NCc2ccc3c(c2)OCO3)s1`, the “hERG current change (%, negative = inhibition) at 1uM” value amounted to 12.4%.
With `COc1ccccc1/C=C/C(=O)Nc1cccc(C(C)=O)c1`, the “hERG current change (%, negative = inhibition) at 1uM” value stood at 4.4%.
Turning to `Cc1cc(S(=O)(=O)n2cnc3ccccc32)c(C)cc1Cl`, the “hERG current change (%, negative = inhibition) at 1uM” value is 6.78%.
Under `CCN1CCC(=NNC(=O)c2ccco2)CC1` stands 1.64%; under `COc1cccc(NC(=O)CN(c2ccc3c(c2)OCO3)S(C)(=O)=O)c1`, 14.1%.
Take `Cc1ccccc1NC(=S)N(CCCN1CCC(C)CC1)Cc1ccco1`: the “hERG current change (%, negative = inhibition) at 1uM” value is given as -32.6%.
As for `CCCCCC(=O)Nc1ccc(C(=O)N/N=C/c2ccc([N+](=O)[O-])cc2)cc1`, the “hERG current change (%, negative = inhibition) at 1uM” value is 13.9%.
Under `C=COC(=O)c1sc2nc(C)cc(C)c2c1N` stands 19.7%; under `CC(=O)N1CCc2cc(S(=O)(=O)C(C)CC(=O)Nc3ccc(OC(F)(F)F)cc3)ccc21` (centres unmarked), 2.41%.
Next, `Cc1ccc(C(=O)N[C@H](C(=O)OCc2cc(=O)oc3cc(C)ccc23)C(C)C)cc1`: 1.31%.
As to `O=C(NCc1nnc(SCC(=O)N2CCCc3ccccc32)n1-c1ccccc1)c1cccc2ccccc12`, the “hERG current change (%, negative = inhibition) at 1uM” value is listed as 17.4%.
Take `COc1ccc(C(=O)CSc2nnc(-c3ccoc3C)n2CC2CCCO2)cc1` (centres unmarked): the “hERG current change (%, negative = inhibition) at 1uM” value stood at 4.78%.
Turning to `COc1cc(C)ccc1OCCON1C(=O)CCC1=O`, the “hERG current change (%, negative = inhibition) at 1uM” value amounted to 9.55%.
For `CCOc1ccc(Cc2nc(C)c(CC(=O)N3CCOCC3)c(=O)[nH]2)cc1`, the “hERG current change (%, negative = inhibition) at 1uM” value is reported as 15.5%.
Turning to `CC(=O)Oc1ccc2occ(C(=O)c3ccccc3)c2c1`, the “hERG current change (%, negative = inhibition) at 1uM” value was determined as 8.49%.
Next, `CC1(C(=O)N2CC3(CC(c4ccccc4)=NO3)C[C@H]2C(=O)NCC(N)=O)CC1` (some centres unmarked): 3.64%; `Cc1ccc(S(=O)(=O)NCCC(=O)NC(C)c2ccccc2)cc1` (centres unmarked): 13.1%; `Cc1cc(C)c(S(=O)(=O)N2CCN(C(=O)C3CCCO3)CC2)c(C)c1` (centres unmarked): 2.22%.
Regarding `Cc1cc2cc(C(c3nnnn3Cc3ccco3)N3CCc4ccccc43)c(=O)[nH]c2cc1C` (centres unmarked), the “hERG current change (%, negative = inhibition) at 1uM” value was found to be 6.4%.
On to `Cc1oc(/N=C/c2ccc(F)cc2)c(C#N)c1C`, for which the “hERG current change (%, negative = inhibition) at 1uM” value is recorded as 14.9%.
Turning to `CC1=Nc2ccccc2N=C(NC(=O)c2ccccc2)C1c1ccccc1` (centres unmarked), the “hERG current change (%, negative = inhibition) at 1uM” value came out at 3.66%.
On to `COc1ccc(S(=O)(=O)Nc2ccc3c(c2)n(C)c(=O)n3C)cc1`, for which the “hERG current change (%, negative = inhibition) at 1uM” value was 10.2%.
`CCCCCOc1ccc(C(=O)NCC(=O)NCC(=O)OCC)cc1`: the “hERG current change (%, negative = inhibition) at 1uM” value was found to be 4.57%.
With `CC1(C)NC(=O)N(CC(O)Cn2c3ccccc3c3ccccc32)C1=O` (centres unmarked), the “hERG current change (%, negative = inhibition) at 1uM” value is reported as 7.68%.
With `CS(=O)(=O)N(CCc1ccccc1)CC(=O)N1CCN(Cc2ccccc2)CC1`, the “hERG current change (%, negative = inhibition) at 1uM” value was -0.666%.
As to `CC(C)OC(=O)CC(=O)CSc1nc2c(cc1C#N)CCCCCC2`, the “hERG current change (%, negative = inhibition) at 1uM” value amounted to 14.9%.
Regarding `N#CC(C#N)=C/C(C#N)=C(/N)N1CCN(c2ccc(Cl)cc2)CC1`, the “hERG current change (%, negative = inhibition) at 1uM” value was -2.49%.
As for `CC12CCC(=O)N1C(C(=O)NNC(=O)c1ccccc1)CS2` (centres unmarked), the “hERG current change (%, negative = inhibition) at 1uM” value turned out to be 3.15%.
For the molecule `CCC(C(=O)NC1CCCC1)n1nc(C)n2c(cc3occc32)c1=O` (centres unmarked), the “hERG current change (%, negative = inhibition) at 1uM” value amounted to 11.1%.
As to `COc1cccc2c(=O)c(C/C=C(/C)Cl)c(C)[nH]c12`, the “hERG current change (%, negative = inhibition) at 1uM” value turned out to be 13.4%.
Take `O=C(c1cnn2c(C(F)(F)F)cc(-c3ccco3)nc12)N1CCCCCC1`: the “hERG current change (%, negative = inhibition) at 1uM” value is reported as 4.89%.
Turning to `Cc1ccc(Cn2c(C3CCCN3c3nc(-c4cc(Cl)c(N)c(Cl)c4)cs3)nc3cc(Cl)c(Cl)cc32)cc1` (centres unmarked), the “hERG current change (%, negative = inhibition) at 1uM” value is recorded as 15%.
For `CCN(CC)c1ccc(NC(=O)C(C)C)cc1`, the “hERG current change (%, negative = inhibition) at 1uM” value was determined as 8.82%.
With `CC(C)(C)C(=O)N(Cc1nc2ccccc2c(=O)[nH]1)Cc1cccs1`, the “hERG current change (%, negative = inhibition) at 1uM” value was 3.2%.
Take `COc1ccc(OC)c(/C=N/n2c(-c3n[nH]c4c3CCC4)n[nH]c2=S)c1`: the “hERG current change (%, negative = inhibition) at 1uM” value is on record as 7.55%.
Consider `CCOC(=O)N1CCN(c2nc(C)c3c(n2)CCCC3=O)CC1`, for which the “hERG current change (%, negative = inhibition) at 1uM” value was 18.8%.

For the origin of these results see article PMC4336329 (PLoS ONE, 2015).
